Assay results: paper PMC10009787 (ACS Medicinal Chemistry Letters, 2023)
“And” between values parts separate entries of the source, which are not always exact repeats. Equal values may be shown once.

How the values were obtained:
FGFR3 = FGFR3 (Homo sapiens, UniProt P22607); assay: SelectScreen kinase profiling; type: biochemical; conditions: average of duplicate
LYN B = LYN B (Homo sapiens, UniProt P07948); assay: SelectScreen kinase profiling; type: biochemical; conditions: average of duplicate
RET = RET (Homo sapiens, UniProt P07949); assay: SelectScreen kinase profiling; type: biochemical; conditions: average of duplicate
FGFR2 = FGFR2 (Homo sapiens, UniProt P21802); assay: SelectScreen kinase profiling; type: biochemical; conditions: average of duplicate
LCK = LCK (Homo sapiens, UniProt P06239); assay: SelectScreen kinase profiling; type: biochemical; conditions: average of duplicate
Sequence of UniProt P06239 (P06239 whole entry): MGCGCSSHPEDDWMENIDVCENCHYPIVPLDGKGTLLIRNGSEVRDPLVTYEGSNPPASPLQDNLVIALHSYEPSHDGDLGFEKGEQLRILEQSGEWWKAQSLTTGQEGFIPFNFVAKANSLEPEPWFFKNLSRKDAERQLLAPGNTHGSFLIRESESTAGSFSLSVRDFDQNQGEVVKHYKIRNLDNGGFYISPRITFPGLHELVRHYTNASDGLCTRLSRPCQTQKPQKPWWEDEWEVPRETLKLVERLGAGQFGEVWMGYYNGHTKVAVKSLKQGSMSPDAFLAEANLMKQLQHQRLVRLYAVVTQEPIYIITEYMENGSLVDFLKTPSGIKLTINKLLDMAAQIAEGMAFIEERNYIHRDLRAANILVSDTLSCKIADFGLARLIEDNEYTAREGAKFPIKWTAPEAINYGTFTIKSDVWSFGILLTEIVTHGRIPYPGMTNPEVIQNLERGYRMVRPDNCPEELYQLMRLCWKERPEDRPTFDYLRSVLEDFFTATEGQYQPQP

ERBB4 (HER4) = ERBB4 (HER4) (Homo sapiens, UniProt Q15303); assay: SelectScreen kinase profiling; type: biochemical; conditions: average of duplicate
EGFR (ErbB1) d746-750 = EGFR (ErbB1) d746-750 (Homo sapiens, UniProt P00533, DEL746-750); assay: SelectScreen kinase profiling; type: biochemical; conditions: average of duplicate
YES1 = YES1 (Homo sapiens, UniProt P07947); assay: SelectScreen kinase profiling; type: biochemical; conditions: average of duplicate
EGFR (ErbB1) T790M = EGFR (ErbB1) T790M (Homo sapiens, UniProt P00533, T790M); assay: SelectScreen kinase profiling; type: biochemical; conditions: average of duplicate
FLT4 (VEGFR3) = FLT4 (VEGFR3) (Homo sapiens, UniProt P35916); assay: SelectScreen kinase profiling; type: biochemical; conditions: average of duplicate
MAP2K2 (MEK2) = MAP2K2 (MEK2) (Homo sapiens, UniProt P36507); assay: SelectScreen kinase profiling; type: biochemical; conditions: average of duplicate
[1] = system: ibrutinib’s top 50 targets; assay: Single-point kinase profiling, count of kinases inhibited; type: biochemical; conditions: 1 μM, of 50 kinases
BTK [2] = molecular target: T1, BTK (Homo sapiens, UniProt Q06187); assay: AssayQuant kinact/Ki profiling, PhosphoSens CSox-based kinetic assay; type: biochemical; design: purchased ThermoFisher / Life Technologies SelectScreen PV3363; conditions: 0.6 nM enzyme, 1000 µM ATP, one step fit
T1 sequence (Q06187 whole entry): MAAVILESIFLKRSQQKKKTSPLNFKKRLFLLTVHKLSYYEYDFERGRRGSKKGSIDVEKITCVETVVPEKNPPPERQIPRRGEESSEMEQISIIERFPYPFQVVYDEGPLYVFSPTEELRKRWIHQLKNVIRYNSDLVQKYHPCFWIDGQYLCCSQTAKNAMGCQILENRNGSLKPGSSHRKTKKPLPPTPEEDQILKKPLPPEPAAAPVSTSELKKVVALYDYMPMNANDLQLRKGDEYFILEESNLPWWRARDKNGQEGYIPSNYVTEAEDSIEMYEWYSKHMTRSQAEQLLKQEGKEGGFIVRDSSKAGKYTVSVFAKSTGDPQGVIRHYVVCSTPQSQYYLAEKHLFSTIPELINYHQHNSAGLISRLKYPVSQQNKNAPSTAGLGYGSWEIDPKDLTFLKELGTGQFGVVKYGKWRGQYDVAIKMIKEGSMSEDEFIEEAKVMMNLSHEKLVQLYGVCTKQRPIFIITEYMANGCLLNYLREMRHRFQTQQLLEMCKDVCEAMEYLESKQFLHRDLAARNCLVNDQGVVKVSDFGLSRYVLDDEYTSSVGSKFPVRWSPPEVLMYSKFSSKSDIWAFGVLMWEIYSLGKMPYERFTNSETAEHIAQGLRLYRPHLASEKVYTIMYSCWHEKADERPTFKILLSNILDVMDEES

BLK = BLK (Homo sapiens, UniProt P51451); assay: SelectScreen kinase profiling / Z′-Lyte kinase assay
Sequence of UniProt P51451 (P51451 whole entry): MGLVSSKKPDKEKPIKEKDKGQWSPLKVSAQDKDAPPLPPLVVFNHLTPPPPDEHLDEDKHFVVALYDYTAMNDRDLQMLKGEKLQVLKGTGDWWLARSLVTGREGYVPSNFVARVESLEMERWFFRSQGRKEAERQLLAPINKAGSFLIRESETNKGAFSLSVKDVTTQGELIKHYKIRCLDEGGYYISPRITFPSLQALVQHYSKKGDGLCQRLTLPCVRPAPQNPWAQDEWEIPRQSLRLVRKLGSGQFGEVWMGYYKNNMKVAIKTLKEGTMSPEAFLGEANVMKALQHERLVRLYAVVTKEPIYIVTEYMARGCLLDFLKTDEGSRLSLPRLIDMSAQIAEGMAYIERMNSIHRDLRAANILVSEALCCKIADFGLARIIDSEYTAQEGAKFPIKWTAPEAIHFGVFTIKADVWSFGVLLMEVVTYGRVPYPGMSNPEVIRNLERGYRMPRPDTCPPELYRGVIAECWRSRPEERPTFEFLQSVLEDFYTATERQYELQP

SRC = SRC (Homo sapiens, UniProt P12931); assay: as above
Sequence of UniProt P12931 (P12931 whole entry): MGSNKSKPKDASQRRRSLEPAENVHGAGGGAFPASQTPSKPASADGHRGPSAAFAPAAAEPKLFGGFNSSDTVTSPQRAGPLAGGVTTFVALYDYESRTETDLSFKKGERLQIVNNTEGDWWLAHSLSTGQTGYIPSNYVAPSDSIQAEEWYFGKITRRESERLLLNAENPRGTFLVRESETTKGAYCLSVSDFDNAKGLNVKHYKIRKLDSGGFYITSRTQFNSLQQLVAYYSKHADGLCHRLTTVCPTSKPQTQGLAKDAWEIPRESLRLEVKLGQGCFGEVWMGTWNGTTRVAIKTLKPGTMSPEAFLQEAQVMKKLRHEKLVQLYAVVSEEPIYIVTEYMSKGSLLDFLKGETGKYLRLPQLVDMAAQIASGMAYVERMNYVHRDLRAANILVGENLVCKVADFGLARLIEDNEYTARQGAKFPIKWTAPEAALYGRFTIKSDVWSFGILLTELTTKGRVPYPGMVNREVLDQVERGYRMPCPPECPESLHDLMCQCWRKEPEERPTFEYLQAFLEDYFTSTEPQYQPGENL

ABL2 (Arg) = ABL2 (Arg) (Homo sapiens, UniProt P42684); assay: SelectScreen kinase profiling; type: biochemical; conditions: average of duplicate
Sequence of UniProt P42684 (P42684 whole entry): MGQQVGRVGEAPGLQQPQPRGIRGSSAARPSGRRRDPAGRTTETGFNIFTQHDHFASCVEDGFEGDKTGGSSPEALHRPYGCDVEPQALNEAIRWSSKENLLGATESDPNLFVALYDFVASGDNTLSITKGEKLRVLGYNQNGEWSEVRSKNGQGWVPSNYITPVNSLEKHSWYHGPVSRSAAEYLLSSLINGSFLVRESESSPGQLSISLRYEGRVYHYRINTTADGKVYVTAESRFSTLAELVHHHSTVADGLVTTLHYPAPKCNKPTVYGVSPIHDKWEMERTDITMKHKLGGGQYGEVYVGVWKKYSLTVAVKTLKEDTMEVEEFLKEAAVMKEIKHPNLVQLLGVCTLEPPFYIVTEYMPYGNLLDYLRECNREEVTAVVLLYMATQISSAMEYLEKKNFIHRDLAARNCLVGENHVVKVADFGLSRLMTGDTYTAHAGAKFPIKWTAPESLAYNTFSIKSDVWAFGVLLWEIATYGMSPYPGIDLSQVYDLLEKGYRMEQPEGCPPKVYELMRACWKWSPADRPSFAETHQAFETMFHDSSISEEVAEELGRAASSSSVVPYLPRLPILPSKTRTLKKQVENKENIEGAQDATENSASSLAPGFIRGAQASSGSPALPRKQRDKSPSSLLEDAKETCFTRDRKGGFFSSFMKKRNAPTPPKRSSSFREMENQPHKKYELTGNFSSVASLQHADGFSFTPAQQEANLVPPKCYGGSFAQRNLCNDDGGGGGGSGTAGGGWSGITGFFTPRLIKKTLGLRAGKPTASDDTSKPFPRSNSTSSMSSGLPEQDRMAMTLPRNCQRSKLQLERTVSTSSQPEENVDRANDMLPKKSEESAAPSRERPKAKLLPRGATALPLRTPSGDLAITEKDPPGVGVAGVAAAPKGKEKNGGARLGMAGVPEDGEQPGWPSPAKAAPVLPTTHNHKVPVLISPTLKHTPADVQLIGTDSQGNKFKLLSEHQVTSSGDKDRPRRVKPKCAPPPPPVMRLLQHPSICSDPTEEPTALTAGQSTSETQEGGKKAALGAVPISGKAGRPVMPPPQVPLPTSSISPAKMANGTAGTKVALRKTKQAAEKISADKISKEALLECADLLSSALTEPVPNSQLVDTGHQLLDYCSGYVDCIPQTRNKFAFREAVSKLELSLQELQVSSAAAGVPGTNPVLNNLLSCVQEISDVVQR

KDR (VEGFR2) = KDR (VEGFR2) (Homo sapiens, UniProt P35968); assay: SelectScreen kinase profiling; type: biochemical; conditions: average of duplicate
BTK [3] = molecular target: T1, BTK; assay: SelectScreen kinase profiling / Z′-Lyte kinase assay; conditions: BTK IC50, Z′-Lyte, [ATP] Km app, 1 h incubation, duplicate
FGFR1 = FGFR1 (Homo sapiens, UniProt P11362); assay: SelectScreen kinase profiling; type: biochemical; conditions: average of duplicate
ABL1 = ABL1 (Homo sapiens, UniProt P00519); assay: SelectScreen kinase profiling; type: biochemical; conditions: average of duplicate
Sequence of UniProt P00519 (P00519 whole entry): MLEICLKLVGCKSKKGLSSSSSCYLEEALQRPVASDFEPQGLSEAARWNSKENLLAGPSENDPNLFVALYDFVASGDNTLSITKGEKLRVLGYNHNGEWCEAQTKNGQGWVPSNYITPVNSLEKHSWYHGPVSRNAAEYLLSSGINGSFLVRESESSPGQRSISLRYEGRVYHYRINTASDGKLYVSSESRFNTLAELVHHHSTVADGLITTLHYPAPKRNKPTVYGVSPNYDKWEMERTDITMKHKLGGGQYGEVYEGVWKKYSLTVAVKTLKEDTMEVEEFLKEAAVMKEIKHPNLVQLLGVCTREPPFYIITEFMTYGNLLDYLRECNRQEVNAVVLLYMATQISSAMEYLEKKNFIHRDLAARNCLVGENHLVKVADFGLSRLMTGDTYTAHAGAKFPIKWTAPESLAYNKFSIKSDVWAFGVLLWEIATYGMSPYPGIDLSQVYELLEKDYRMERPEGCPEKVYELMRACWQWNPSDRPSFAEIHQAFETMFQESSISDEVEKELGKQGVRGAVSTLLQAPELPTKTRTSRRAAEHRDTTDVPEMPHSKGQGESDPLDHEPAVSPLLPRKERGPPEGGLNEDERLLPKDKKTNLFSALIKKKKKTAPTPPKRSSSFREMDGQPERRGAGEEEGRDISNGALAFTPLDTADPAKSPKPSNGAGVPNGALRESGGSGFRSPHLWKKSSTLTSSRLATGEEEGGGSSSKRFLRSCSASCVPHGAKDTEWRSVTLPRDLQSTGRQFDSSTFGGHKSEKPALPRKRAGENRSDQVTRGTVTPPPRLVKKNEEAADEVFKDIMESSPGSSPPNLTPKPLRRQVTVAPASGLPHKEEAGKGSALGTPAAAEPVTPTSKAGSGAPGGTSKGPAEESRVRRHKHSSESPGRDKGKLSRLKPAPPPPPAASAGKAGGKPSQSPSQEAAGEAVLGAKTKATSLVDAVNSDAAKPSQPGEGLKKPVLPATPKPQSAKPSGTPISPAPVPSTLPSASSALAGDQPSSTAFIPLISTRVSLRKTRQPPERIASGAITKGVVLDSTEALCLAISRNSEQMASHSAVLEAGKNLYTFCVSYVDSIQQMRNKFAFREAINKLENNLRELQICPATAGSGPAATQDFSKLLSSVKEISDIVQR

FGR = FGR (Homo sapiens, UniProt P09769); assay: SelectScreen kinase profiling; type: biochemical; conditions: average of duplicate
Sequence of UniProt P09769 (P09769 whole entry): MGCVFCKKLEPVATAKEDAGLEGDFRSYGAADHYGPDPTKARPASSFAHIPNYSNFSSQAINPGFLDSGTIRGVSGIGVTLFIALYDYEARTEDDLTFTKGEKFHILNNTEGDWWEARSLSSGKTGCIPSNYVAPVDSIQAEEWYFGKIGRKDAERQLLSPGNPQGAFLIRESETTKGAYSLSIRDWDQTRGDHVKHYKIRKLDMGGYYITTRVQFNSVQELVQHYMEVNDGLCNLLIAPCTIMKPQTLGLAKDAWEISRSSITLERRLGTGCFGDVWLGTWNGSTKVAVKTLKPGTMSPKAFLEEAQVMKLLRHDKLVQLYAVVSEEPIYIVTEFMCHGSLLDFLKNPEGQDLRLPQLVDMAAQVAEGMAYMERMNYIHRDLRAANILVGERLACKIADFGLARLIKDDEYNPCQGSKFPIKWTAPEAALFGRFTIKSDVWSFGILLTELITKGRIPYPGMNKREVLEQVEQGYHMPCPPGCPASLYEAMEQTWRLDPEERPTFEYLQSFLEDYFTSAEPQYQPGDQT

[4] = BTK selectivity from IC50 values

- inhibition at 1 µM (FGFR3): 12%
- inhibition at 1 µM (LYN B): 92%
- inhibition at 1 µM (RET): 46%
- inhibition at 1 µM (FGFR2): 54%
- inhibition at 1 µM (LCK): 100%
- inhibition at 1 µM (ERBB4 (HER4)): 101%
- inhibition at 1 µM (EGFR (ErbB1) d746-750): 94%
- inhibition at 1 µM (YES1): 98%
- inhibition at 1 µM (EGFR (ErbB1) T790M): 68%
- inhibition at 1 µM (FLT4 (VEGFR3)): 21%
- inhibition at 1 µM (MAP2K2 (MEK2)): 20%
- number of kinases inhibited to 10% of control [1]: 17
- kinact/KI (BTK [2]): 280000 M⁻¹ s⁻¹
- inhibition at 1 µM (BLK): 107%
- IC50 (BLK; BLK IC50, Z′-Lyte, [ATP] Km app, 1 h incubation, duplicate): 1.4 nM and 1.36 nM
- BLK, BTK/Kinase (BLK; [4]): 1.4 x
- inhibition at 1 µM (SRC): 95%
- SRC, BTK/Kinase (SRC; [4]): 37 x
- inhibition at 1 µM (ABL2 (Arg)): 23%
- inhibition at 1 µM (KDR (VEGFR2)): 23%
- IC50 (BTK [3]): 0.9 nM and 0.936 nM
- inhibition at 1 µM (FGFR1): 57%
- inhibition at 1 µM (ABL1): 16%
- inhibition at 1 µM (FGR): 98%
SMILES: C=CC(=O)N1CCC[C@@H](n2nc(-c3ccc(Oc4ccccc4)cc3C)c3c(N)ncnc32)C1 [Compound 2, (R)-1-(3-(4-amino-3-(2-methyl-4-phenoxyphenyl)-1H-pyrazolo[3,4-d]pyrimidin-1-yl)piperidin-1-yl)prop-2-en-1-one]
